Measured values from the supplement of paper PMC3334620.
The full ranking holds about 33,000 sequences; the median of “E-score (-0.5 to 0.5)” is about -0.017, and the highest 2% start at about 0.3. The list shows a part of the results.

Molecular target: T1, Sut1 (UniProt P53032)
T1 sequence: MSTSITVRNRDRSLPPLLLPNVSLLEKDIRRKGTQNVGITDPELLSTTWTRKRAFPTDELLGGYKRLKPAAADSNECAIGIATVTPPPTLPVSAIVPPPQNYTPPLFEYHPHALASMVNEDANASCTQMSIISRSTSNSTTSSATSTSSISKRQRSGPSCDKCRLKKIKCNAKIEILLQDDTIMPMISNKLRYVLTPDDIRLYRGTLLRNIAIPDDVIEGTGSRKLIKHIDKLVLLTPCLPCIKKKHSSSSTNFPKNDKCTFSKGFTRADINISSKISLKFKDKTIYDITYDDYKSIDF
Assay: PBM E-score (8-mer binding enrichment) (E-score (-0.5 to 0.5)); higher = stronger / more preferred TF binding; most listed sequences are background and not binding sites
Settings: protein concentration: 200 nM; construct: GST-full length
Description: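 Universal 'all 10-mer' protein binding microarrays (Agilent AMADID 015681) probed with GST-tagged S. cerevisiae TFs (full-length or DBD) made by in vitro transcription/translation (PURExpress), about 100-200 nM. Bound TF was detected with fluorescent anti-GST. Each ungapped 8-mer (which stands for itself and its reverse complement) is scored by the PBM enrichment score (E-score), a modified Wilcoxon-Mann-Whitney statistic from -0.5 to +0.5, computed with the Universal PBM Analysis Suite. Scale: above 0.35 generally sequence-specific binding.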

| Sequence | PBM E-score |
| --- | --- |
| AAAAAAGT | 0.21 |
| CTGTAACA | -0.226 |
| AATTGAGT | 0.189 |
| CGGTGCCC | -0.158 |
| AAGGTCAT | -0.0897 |
| ACGTAATC | 0.0136 |
| CTTCCGTA | 0.181 |
| CAATGTCA | 0.103 |
| ACTATCGG | 0.149 |
| TCACGGCA | 0.108 |
| CCGAGGCG | -0.172 |
| TGGACTAA | -0.104 |
| AGCAAAAA | 0.279 |
| ACACACGT | -0.0258 |
| CTTAGTTA | 0.0937 |
| ACAGTCGG | 0.0941 |
| ATCCAAGG | -0.0637 |
| GGATGACA | 0.0191 |
| AGTCCTAA | -0.00696 |
| TAACACGA | 0.0134 |
| GGCAAGCA | -0.11 |
| ACTGTGAC | -0.142 |
| AACCATAG | -0.00688 |
| CTGCTCAA | -0.101 |
| CATTCCAC | -0.0352 |

| Sequence | PBM E-score |
| --- | --- |
| GGCTTAGA | -0.242 |
| AACTCCAG | 0.137 |
| CTGGGACC | -0.3 |
| CCGCGATC | 0.00816 |
| GCGGAAGC | 0.069 |
| AATAAGGA | 0.0856 |
| ATTTAAAG | 0.267 |
| ACTTCACT | 0.196 |
| AGTTGGCA | 0.119 |
| GTGATAGA | 0.043 |
| GCAATGAA | 0.0552 |
| ATACAGTA | 0.141 |
| CAGCCGCG | -0.132 |
| CCGGGCAG | -0.121 |
| TATTTCCA | 0.146 |
| AAGCGTTG | 0.0783 |
| AGGAGAGC | -0.345 |
| CTATAGCA | 0.0427 |
| CGGAGCCC | 0.183 |
| AGAAGACA | 0.00462 |
| ACTTGACC | -0.0871 |
| ACCGTGAC | -0.126 |
| AAAAATGG | 0.175 |
| TCCATACA | 0.118 |
| CGTGGTAC | -0.123 |

| Sequence | PBM E-score |
| --- | --- |
| GACACGTA | -0.0615 |
| GGCTCACA | -0.13 |
| AGCGTCTC | -0.14 |
| AAGGACCG | 0.0453 |
| CATGTCGG | -0.0605 |
| CAGCGTAG | 0.0426 |
| CTACTTAA | 0.0855 |
| CATTCAAG | 0.0133 |
| GAGTATGC | 0.068 |
| CCTCCGTA | 0.0232 |
| AGTCCTAG | -0.0729 |
| CATCGAGC | -0.0361 |
| CAGTCGTC | -0.102 |
| GAATGGCC | 0.03 |
| CTCCGGTC | 0.418 |
| CCTCCTGA | -0.168 |
| GGACTTAC | 0.352 |
| ATGAGATA | 0.128 |
| CCGGTCCG | 0.182 |
| TCCGAGGA | 0.34 |
| CCCGTCTC | -0.256 |
| TCAATCCA | -0.00469 |
| ATGGGTTG | -0.0255 |
| CTAAGCAG | -0.0865 |
| GCACCCAA | -0.114 |

| Sequence | PBM E-score |
| --- | --- |
| GTCATGTA | -0.0415 |
| GCGATCAA | -0.145 |
| AGCGTATC | -0.0874 |
| CGTAGGCC | -0.112 |
| GCCCTCGA | -0.284 |
| ACGAGCCT | -0.195 |
| CTACCCTC | -0.233 |
| ACCAGCAA | 0.085 |
| AGCTAGAC | -0.044 |
| GATTGGCA | -0.18 |
| AAGCATAA | 0.104 |
| GATGCTAA | 0.0485 |
| ACTCCGGC | 0.489 |
| ATCGTAGC | -0.0256 |
| GACAACTA | 0.147 |
| GAATGTTA | 0.234 |
| AGCGTCCG | -0.0943 |
| AGTGTGAA | 0.19 |
| AAAGAGAC | 0.15 |
| ATGCATCG | 0.0435 |
| ACGGCGAC | -0.0258 |
| AATTTAGG | 0.199 |
| CGGATTTA | 0.236 |
| CCAGCAAC | 0.0963 |
| AGACATAC | -0.124 |

| Sequence | PBM E-score |
| --- | --- |
| AGAGGCAT | 0.03 |
| GACGCCCA | -0.229 |
| AAGGCGTG | -0.182 |
| GGCTTTGA | 0.0492 |
| CGACCCTC | -0.081 |
| AACTAAGG | 0.162 |
| CTAATAAA | 0.197 |
| GAGAAGCA | -0.0115 |
| AGGCGAAC | -0.145 |
| GAGAGGGA | -0.25 |
| ATCCCTAC | 0.0509 |
| CAATAGAC | 0.0854 |
| AGCTAACA | -0.0661 |
| AGGCCAAT | -0.0219 |
| CCGTTAGG | -0.0674 |
| ACATCCCA | -0.192 |
| TACGTAAA | 0.122 |
| GTCGACAC | -0.097 |
| CATCGTAC | -0.141 |
| CGGGTCAA | 0.00658 |
| CACCTTAA | 0.00957 |
| GTGTTGGA | 0.0639 |
| TGGTCAAA | 0.0173 |
| CCAGCCCC | -0.104 |
| AATTATGG | 0.179 |

| Sequence | PBM E-score |
| --- | --- |
| TGTGAACA | 0.0484 |
| ACGGGACG | -0.088 |
| AATCAGGG | -0.288 |
| GTCAGCGA | -0.186 |
| ATGAATTG | 0.165 |
| GCACCCCA | -0.204 |
| ATATTCAG | 0.04 |
| ATGAGTCA | -0.0351 |
| CCCACCAG | -0.347 |
| AAATATGT | 0.317 |
| AAAATACT | 0.139 |
| AGGTCTAA | -0.0642 |
| ACATGCCC | -0.00981 |
| ACAATCGC | -0.0754 |
| CCCGTAGA | -0.245 |
| ACCACGGT | -0.276 |
| AGACCTTA | -0.0293 |
| TATAATAA | 0.298 |
| TTTCCAAA | 0.133 |
| AGATTACG | 0.0898 |
| CCAATGGG | -0.286 |
| GTTGATGA | 0.111 |
| ACTCATGA | 0.0472 |
| CATTCTCA | 0.102 |
| TATATAAA | 0.248 |

| Sequence | PBM E-score |
| --- | --- |
| ACCTCACC | 0.0629 |
| AATTTATG | 0.225 |
| GATTTTGA | 0.235 |
| CACGGCCG | -0.241 |
| CATACGCA | -0.0732 |
| AGGACGAC | -0.0915 |
| ACTCGCGC | -0.144 |
| ATCTCTTC | 0.0425 |
| GAGAGTTA | -0.0175 |
| CGAAAATA | 0.197 |
| CCATTACC | -0.101 |
| AGATCAGC | -0.0817 |
| CATCCGCA | 0.0523 |
| CGACGACG | -0.151 |
| CTTTATTA | 0.261 |
| TGGGTCAA | -0.129 |
| AGGCAAGA | -0.109 |
| AAACTTAT | 0.254 |
| CACGTTCC | -0.288 |
| ATGAAGCG | -0.174 |
| CATCTAGC | -0.0138 |
| ACCGGTTC | -0.219 |
